# Laboratory results reported in ChEMBL document CHEMBL4888484, “Replenishing the malaria drug discovery pipeline: Screening and hit evaluation of the MMV Hit Generation Library 1 (HGL1) against asexual blood stage Plasmodium falciparum ,using a nano luciferase reporter read-out” (2022).
# Hit rate of the full screen: of about 150,000 compounds, about 540 (0.36%) showed an effect of 50% or more. Some of the results follow.
# System: Plasmodium falciparum
# Assay: Primary screen in NF54 nanoGlo assay, in single point, at 2uM, 72h; a lower Z score goes with more inhibition
# Assay type: functional, Erythrocyte
# Details: timepoint 72 hour
SMILES,% Inhibition,Z score
Cc1cc(C)cc(NC(=O)CC[C@@H]2NC(=O)N(CCc3c[nH]c4ccccc34)C2=O)c1,-4%,0.56
NC(=O)c1ccccc1CC(=O)N1CCc2cc(-c3ccccc3)oc2C1,-4%,0.51
COc1ccc(N2C[C@@H](c3nnc(NC(=O)c4ccco4)o3)CC2=O)cc1,-8%,1.26
Cc1ccc(CNC(=O)[C@]2(C)Cn3nc(C)cc3C(=O)N2c2ccc3c(c2)OCCO3)cc1,-1%,0.18
Cc1c(C(=O)N(C)c2ccccc2N(C)C)cnn1-c1ccncc1,-6%,0.65
COC(=O)[C@H](NC(=O)Cn1cccn1)c1ccc2ccccc2c1,-15%,1.73
C[C@H]1CNC(=O)CCN1Cc1c[nH]nc1-c1cccc(F)c1,2%,-0.37
Cc1csc(Oc2ccc(N)cc2F)n1,-12%,1.47
CCc1nc(C)c(-c2c(C#N)c(N)nc3c2N2CCC3CC2)[nH]1,-6%,1
Cc1nc(-c2nc(C[C@H](C)N(C)C(=O)OC(C)(C)C)no2)cs1,-8%,1.02
CCOc1ccccc1CNC(=O)c1cccn1-c1cccnc1C,-13%,1.33
CC1CN(CC(=O)N(C(C)C)C(C)C)CC[S+]([O-])C1 (centres undefined),10%,-1.26
CN1C[C@H]2CN(S(=O)(=O)c3cc(F)cc(F)c3)C[C@@]2(C(=O)N2CCCC2)C1,-10%,1.36
COc1ccc(-c2nn([C@@H](C)C(=O)Nc3ccccc3C(F)(F)F)c(=O)c3noc(C)c23)cc1,-2%,0.2
CC(C)(C)CC(C)(C)NC(=O)c1ccc2nc(N3C(=O)CCC3=O)sc2c1,30%,-4.27
O=C(Nc1ccon1)C1CN(C(=O)c2cccs2)C1,-10%,1.72
N#Cc1cnc(NC2CCCCC2CO)c(Cl)c1 (centres undefined),-5%,1
CC[C@@H](C(=O)N1CCC2(CC1)C(=O)N(CC(=O)NCc1ccc(F)cc1)CN2c1ccccc1)c1ccccc1,-9%,1.79
COc1ccc(C(=O)N2CCc3ccc(C(=O)NC4CCCCC4)cc32)cc1,-22%,3.51
Cc1ccc([C@H](Cc2ccccc2)NCc2nnn(C)n2)cc1C,2%,-0.28
COc1cc2cc[n+](C)c(C)c2cc1OC,-6%,0.78

SMILES,% Inhibition,Z score
CNC(=O)N1CCC([C@H]2CCN(S(=O)(=O)c3ccc(C)c(F)c3)C2)CC1,-12%,1.35
N=C(N)c1ccnc(OCCc2ccccc2)c1,17%,-2.3
COc1ccc2c(c1)OCC([C@H]1Nc3ccccc3C(=O)N1CC(F)(F)F)=C2,-3%,0.29
CN1CCN(C(=O)c2cc(F)ccc2OCCN)[C@@H](c2ccccc2)C1,-4%,0.74
CC[C@H]1C(=O)NCCCN1Cc1noc2c1CCCC2,-3%,0.66
CN(C)[C@@H](CNC(=O)C(=O)Nc1ccon1)c1ccc2c(c1)CCO2,-5%,0.79
Cc1nccn1C[C@H]1CCCN(C(=O)CCC(F)(F)F)C1,-9%,1.26
COc1cccc2c1CC[C@]2(N)C(=O)N1CCC(OC(C)C)CC1,-3%,0.45
CCC[C@H](NC(C)=O)C(=O)NCCn1cnc(C)c1C,-7%,0.76
COC[C@H](O)CN1CCC(Oc2ccccn2)C1 (some centres undefined),-6%,1.21
C[C@@H](c1nc2ccccc2c(=O)[nH]1)N1CCCCCCC1,35%,-3.94
CC(NC(=O)Nc1nccs1)C1CCCO1 (centres undefined),14%,-1.89
CC(C1CC1)n1nccc1NC(=O)N1CCCC(OCC2CC2)C1 (centres undefined),-13%,1.06
CCC[C@@H](CNc1cncc(N(C)C)n1)N(C)C,1%,-0.2
CO[C@H]1COCC[C@@H]1NC(=O)Cc1cccc(C)c1,5%,-0.74
CC(C)n1ccc(CNC(=O)[C@@H]2CN(C)C(=O)N2)n1,-17%,2.46
COc1ccnc(C(=O)NCC2(CN3CCN(C)CC3)CC2)c1,-7%,1.37
O=C(Nc1ccc(F)cc1)Nc1nccn(-c2ccc(F)cc2)c1=O,-12%,1.61
CC(C)c1nccn1CC(=O)N(CCC#N)c1cccc(Cl)c1,8%,-0.95
O=C(CCc1nc(N2CCCCC2)c2c(-c3ccccc3)noc2n1)NCc1ccccc1Cl,16%,-2.52
COc1ccc(NC(=O)C2=C(C)Nc3c(C(=O)Nc4cccc(C)c4)cnn3[C@H]2c2ccc(Cl)cc2)cc1,13%,-2.26

SMILES,% Inhibition,Z score
CCc1ccccc1OCCN(C)Cc1cncn1CC,0%,-0.09
O=C(c1ccc2[nH]c(CO)nc2c1)N1C[C@@H]2CC[C@H]1CN(Cc1cccnc1)C2,-3%,0.54
Cn1cc(Br)c(C(=O)N[C@H]2CCCOC2)cc1=O,-5%,0.8
Cc1onc(C2CC2)c1C(=O)NC[C@H](C)Cn1ccnc1C,1%,-0.17
CCN1CCCN(C[C@H]2CN(c3ccccc3)C(=O)O2)CC1,-18%,2.32
Cc1ccc(NC(=O)C(C)N2CCCC3(CCOC3)C2)c(Cl)c1 (centres undefined),-20%,2.19
O=C(NCc1c(F)cc(F)cc1F)C12CCCN1CCC2,-7%,0.91
O=C1CC(C(=O)N2C3CCC2COC3)CN1c1ccc(F)cc1 (centres undefined),-6%,0.63
COc1cccc(CC(=O)N2CCC3(CC2)NC(=O)c2cc(F)ccc2N3C)c1,-11%,1.37
CC(C)(C)NC(=O)NC(=O)CN[C@H]1Cc2ccccc2O[C@@H]1C(F)(F)F,-13%,1.89
Cc1nc([C@H](C)n2ccnc2C(C)C)n(-c2cccc3cccnc23)n1,-2%,0.32
O=C(NCCCn1ccnc1)C1CC2CCC1C2 (centres undefined),-7%,0.91
CCOc1ccc(CCNC(=O)c2ccc(CN3C(=O)CCn4nccc43)cc2)cc1OCC,16%,-1.92
Cc1nn(C)c(C)c1NC(=O)CN1CCc2c(Cl)cc(Cl)cc2C1,0%,-0.03
CCN1C(=O)[C@@H]2[C@H](C1=O)[C@H](C(=O)OC)N[C@@H]2c1ccccc1C(F)(F)F,3%,-0.57
CC[C@@]12CCCN1C(=O)N(Cc1cccc(CNC(C)=O)c1)C2=O,-6%,0.75
CN(C)S(=O)(=O)c1ccc2c(c1)CCN2C(=O)[C@@H]1Cc2ccccc2O1,3%,-0.43
CCS(=O)(=O)N1CCCN(c2ccc(=O)n(-c3ccc(C)c(C)c3)n2)CC1,-1%,0.11
Cn1cncc1-c1ccc(S(=O)(=O)N2CCCCC2)cc1,-18%,1.65
Cc1cc(C)c(CN(C)Cc2nncn2C)c(C)c1CO,-1%,0.11
CCc1ccccc1OCCN1CC[C@]2(O)CCN(C(=O)C3CCCC3)C[C@@H]2C1,4%,-0.85

SMILES,% Inhibition,Z score
Cc1ccc(O[C@H]2CCOC[C@H]2NC(=O)CCN2CCCCO2)cn1,-1%,0.17
O=C(Cc1cccs1)Nc1ncc(Cc2ccccc2)s1,36%,-0.8
CC(C)c1ccc(-c2cc3c4nn(Cc5cc(F)cc(F)c5)c(=O)n4ccn3n2)cc1,30%,-3.92
C[C@@H](c1nc2cc(Cl)ccc2c(=O)n1C)N(C)C(=O)C(c1ccccc1)c1ccccc1,-1%,0.09
O=C1N[C@]2(CCc3ccccc3C2)C(=O)N1CC1CCCCCC1,-5%,0.61
CC(=O)N1CCC[C@H]1C(=O)N1CCC(C(Cc2ccc(F)cc2F)N(C)C(=O)c2cccnc2)CC1 (some centres undefined),14%,-1.79
CN(Cc1nnc2n1CCC2)C(=O)CCC(=O)c1ccc(Cl)cc1,-10%,0.91
Cc1nsc(C)c1Cn1cnc2c(cnn2C)c1=O,1%,-0.12
Cc1n[nH]c(-n2cnnc2)c1NC(=O)c1cccs1,28%,-3.74
O=C(Nc1ccc(N2CCN(c3ccccc3F)CC2)c(S(=O)(=O)NCc2ccc3c(c2)OCO3)c1)C1CCCCC1,2%,-0.33
CCN(CC)c1ccc(C(=O)N(C)c2c(C)noc2C)c(O)c1,4%,-0.53
COc1c(C(=O)N2CCC(Cn3nc(C)cc3C)CC2)c(C)nn1C,5%,-0.58
CC1(C)O[C@@H]2C[C@@](OCc3ccc(F)cc3F)(C(=O)NCCN3CCOCC3)CC(OCc3ccc(C#N)cc3)[C@@H]2O1 (some centres undefined),29%,-3.95
CC(C)(CNC(=O)NC1CCN(C2CCCCC2O)CC1)C1=CCCC1 (centres undefined),-10%,1.32
O=C(COc1cccc(Cl)c1Cl)c1ccc(N2CCCC2=O)cc1,-12%,1.77
Cc1nc[nH]c1C(=O)NCc1sc(C(C)C)nc1C,10%,-1.94
COc1ccccc1-n1ncnc1[C@@H]1Cc2ccccc2S(=O)(=O)N1,-13%,1.12
Cc1nc(N2CCN(C(=O)[C@@H]3CCCO3)CC2)c2sccc2n1,14%,-1.87
O=C(Nc1ccc(Br)cc1Br)OC1CCCCC1,7%,-1.17
